Source: the RNAGym collection of RNA variant scans (doi:10.7554/elife.90254)
The source gives no read counts; variants with many changes may rest on few reads.

B1: LINE1-mini (parent)
chain: GGCAGAGCUCAACACAGCGUGGCAAAGUGGCUGUGGCUAGACUGCC

Variants of: B1
Assay: self-cleavage, relative activity (ratio to wild type); higher = more cleavage; in vitro, sequencing; the parent is a self-cleaving ribozyme

Variant | self-cleavage
GGCAGAGCUCAGCACAGCGUGGCAAAGUGGCUGAGGCUUGACUGCC | 0
GGCAGAGCUCAUCACAGCGUGGCAAGGUGGCUGUGGCUAGACUUCC | 0.01
GGCAGAGCUCAUCACAGUGUGGCAAAGUGGUUGUGGCUAGACCGGC | 0.02
GGCAGAGCUCAUCACAGAGUGGCAAAGUGGCUGAGUCUAGACUGCC | 0.03
GGCAGAGCUCAUCACAGCGUGGCAAAGUGGCUGUGGCUUGACUGCU | 0.27
GGCAGAGCUCAUCCCAGCGUGGCAAAGUGGGUGUGACUUGACUGCA | 0
GGCAGAGCUCAUCAUACCGAGGCAAAGUGGCUGUGGCUAGACUGCG | 0.02
GGCAGAGCUCAUGACAGCGUGGCAAAGUGGCUGUGGCUAGACUGCU | 0.18
GGCAGAGCUCAUCUCAGCCUGGCAAAGUGGCUGUGGCUAGACUGCC | 0.06
GGCAGAGCUCAUCACAGCGUGGUAAAGUCGCUGUGGCUGGACUGCC | 0.01
GGCAGAGCUCAUCAAAGCGUGGCAAAGUGGCUGUGGCUAGACUGAC | 0.06
GGCAGAGCUCAUCACCACGUGGCAAAGUGACUGCGGCUAGAAUGCC | 0.04
GGCAGAGCUCAUCACUUCGUGGCAAAGUGGCUGUGGCUAGCCUACC | 0.01
GGCAGAGCUCAUCACAGGGCGGCAAAGAGGCUGUGGCUAGGCUGCU | 0.04
GGCAGAGCUCAUCACAGAGUGGCAAAAUGUCUGUGGCUAGACUGCC | 0.32
GGCAGAGCUCAUUACAGCGUGGCAAAGUGGCUGUGGCUAGAAUACC | 0.38
GGCAGAGCUCAUUACAGCGUGGCAAAUUGGCUGUGGCUAGUCUGCC | 0.09
GGCAGAGCUCAUCACAGUGUGGCAAAGUGGCUGUGGCUAGUCUGCA | 0.17
GGCAGAGCUCAUCACAGCGUGGCAAAGUGGUUGUGGGUAGAGUGCC | 0.02

Variant | self-cleavage
GGCAGAGCUCAUCCCAGCGAGGCAAAGUGCCUGUGGCUAGACUGCG | 0.01
GGCAGAGCUCAUCACAGCGUGGCAGAGUGGCAGUGGCUAGACUGCC | 0.02
GGCAGAGCUCAUCACAGCGUGGCUAAGUGGCGGUGGCUAGACUGCC | 0.01
GGCAGAGCUCAUCACAGCGUGGAAACGUGGCUGUGGCUAGACUUCC | 0.02
GGCAGAGCUCAUCAUAGCGUGGCAAAGUGGCUGUAGCUAGACUGCC | 0.19
GGCAGAGCUCAUCACGGCGUGGCAAAGUGGUUGUGGCUACACUGCC | 0.02
GGCAGAGCUCAUCACAGCGUGGCAUAGUGGCUUGGGCUAGACUGCC | 0.02
GGCAGAGCUCAUCAGAGCGGGGCAAAGUGGCUGUCCCUAGUCUGCC | 0
GGCAGAGCUCAGCACAGCGUGGCAAAGAGGCUGCGGGUAGACUGCC | 0.02
GGCAGAGCUCAUCGCAGCGUGCCAAAGUGGCUGUGGAUAGACUGCC | 0.02
GGCAGAGCUCAUCAUAGCGUGGCAAUGUGGCUGUGGCUAGACUGUC | 0.1
GGCAGAGCUCAUAACAGAGUGGCAAAGUGGAUGUGGCUAGACUGCC | 0.01
GGCAGAGCUCAUAACAGAGUGUCAAAGUGGCUGUGGCUAGACUGCC | 0.05
GGCAGAGCUCAUCAAUGCGUGGCAAAGUGGUUGUGGCUCGACUGUG | 0.01
GGCAGAGCUCAUAACAGCGUGGCAAAUUGGCUGUGGCUAGACUGCC | 0.1
GGCAGAGCUCAUGAGAGCGUGGCAUAGUGCCUGUGGCUAGACUGCC | 0.01
GGCAGAGCUCAUCACAGGGUGGAAAAGUGGCUGUGGCUAGUCUGCU | 0.03
GGCAGAGCUCAUCACAGCGUGGCAGAGUAGCUGUGGCUAGACUGCC | 0.12
GGCAGAGCUCAUCACAGGGUGGGAAAGUGGCUGUGGCUAGACUGCC | 0.03

Variant | self-cleavage
GGCAGAGCUCAGCACAGCGUGGCAAAGCGGCUGUUGCUAGACUGCC | 0.02
GGCAGAGCUCAUCACAGGGUGGCAAAGUGGCUGUGGCUAGACUCCC | 0.04
GGCAGAGCUCAUCAGAGCGUGGUAAAGUGGCUGUGGGUAGACUGCC | 0
GGCAGAGCUCAUCACUUCGUGGAAAGGGGGCUGUGGCUACACUGCC | 0
GGCAGAGCUCAUCACAGAGUGGCAAAGUGGCUGUGGCUAGUCUCCC | 0.05
GGCAGAGCUCAUCACAGUGUAGCAAUGUGGAUGUGGCUAGACUGCC | 0.06
GGCAGAGCUCAUUACAGCGUGUCAAAGUAGCAGUGGCUAGACUGUC | 0.03
GGCAGAGCUCAUGACAGCGUGACAAAGUGGCUGUGGCUAGACUGCC | 0.19
GGCAGAGCUCAUUACAGCGUGGCAAAAUGGCUGUGGCUAGACUGCC | 0.11
GGCAGAGCUCAUCACAGCGUGGCGAAGUGGCUGUGGCUCGACUGCC | 0.12
GGCAGAGCUCAUCACAGCGUGGCGAAGUGGCUGUGGCUGGACUGCC | 0.03
GGCAGAGCUCAUUACAGCAUGGCACAGUGGCUGUGGCUAGACUGCC | 0.07
GGCAGAGCUCAUCACAGUGUGGCAGAGUGGCUGUGGCUAGGCUGCC | 0.05
GGCAGAGCUCAUACCAGCGUGGCAAAGUGGCUGGGGCUAGUCUGCC | 0.07
GGCAGAGCUCAUCACAGCGUGGCCAAUUGGCUGUGGCCAGACUGCC | 0.03
GGCAGAGCUCAUGACAGCGUGGCAAAGUUGCUGUGGCUUGGCUGCC | 0.06
GGCAGAGCUCAUCACAGCGUGGUAAAGUGGCUGGGGCUAGACUGCC | 0.03
GGCAGAGCUCAUCACAGCGUGGCGAAGUGGUUGUGGCUAGACUGCC | 0.07
